The IC50 comes from the fitted curve, where viability falls to half of the control; where the fit passes the top or lowest dose, that dose stands as a limit. AUC is the area under the same curve over the 256-fold range up to the top dose, as a fraction; values near 1 show little effect. For some assays here: Any top dose called inferred was derived from the fitted curves, not read from the paper. For some assays here: Drugs with an entry number were screened twice under separate entries, and the two screens often disagree.
What was measured:
Assay in all cases: Viability of human cancer cell lines after 72 h of drug (GDSC screen)
[1] = compound: C=C1C(=O)O[C@H]2[C@H]1CC/C(C)=C/CC[C@@]1(C)O[C@@H]21 [Parthenolide]; settings: top dose 5 µM
Description: (§1)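 Human cancer cell lines in 384-well plates, medium with 10% serum, drug for 72 h over a 256-fold dose range (nine 2-fold or five 4-fold steps up to the top dose). Adherent lines were fixed and stained with the nucleic acid dye Syto60, suspension lines read with resazurin; signal relative to control wells, capped at 0 and 100%. One two-parameter sigmoid per drug and line, fitted in a mixed model over all curves with the slope shared within a line.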

[2] = compound: C=CCc1cccc(/C=N/NC(=O)CN2CCN(Cc3ccccc3)CC2)c1O [PAC-1]; settings: top dose 2.56 µM
Description: as §1

[3] = compound: COc1cc2ncn(-c3cc(OCc4ccccc4S(C)(=O)=O)c(C#N)s3)c2cc1OC [KIN001-135]; settings: top dose 5 µM; top dose inferred
Description: as §1

[4] = compound: NC(=O)[C@@H](CCC(F)(F)F)N(Cc1ccc(-c2ncon2)cc1F)S(=O)(=O)c1ccc(Cl)cc1 [BMS-708163]; settings: top dose 5 µM; screen: GDSC drug entry 1072; top dose inferred
Description: as §1

Cell Line | AUC [1] | IC50 [1] [µM] | AUC [2] | IC50 [2] [µM] | AUC [3] | IC50 [3] [µM] | AUC [4] | IC50 [4] [µM]
LAMA-84 (chronic myeloid leukaemia, suspension) | 0.924 | > 5 | 0.972 | > 2.56 | 0.986 | > 5 | 0.986 | > 5
697 (lymphoblastic leukaemia, suspension) | 0.6 | 0.555 | 0.731 | 0.616 | 0.985 | > 5 | 0.991 | > 5
KNS-42 (glioma, adherent) | 0.984 | > 5 | 0.983 | > 2.56 | 0.978 | > 5 | 0.973 | > 5
SW872 (soft tissue, adherent) | 0.956 | > 5 | 0.968 | > 2.56 | 0.988 | > 5 | 0.989 | > 5
LB831-BLC (bladder, adherent) | 0.978 | > 5 | 0.986 | > 2.56 | 0.986 | > 5 | 0.986 | > 5
SR (lymphoid neoplasm, suspension) | 0.914 | > 5 | 0.923 | > 2.56 | 0.985 | > 5 | 0.983 | > 5
SHP-77 (small cell lung carcinoma, semi-adherent) | 0.985 | > 5 | 0.946 | > 2.56 | 0.987 | > 5 | 0.972 | > 5
Raji (Burkitt lymphoma, suspension) | 0.961 | > 5 | 0.833 | 1.51 | 0.99 | > 5 | 0.989 | > 5
NCI-H1963 (small cell lung carcinoma, suspension) | 0.866 | 3.53 | 0.934 | > 2.56 | 0.991 | > 5 | 0.991 | > 5
IMR-5 (neuroblastoma, adherent) | 0.992 | > 5 | 0.925 | > 2.56 | 0.992 | > 5 | 0.992 | > 5
EVSA-T (breast, adherent) | 0.883 | 4.03 | 0.983 | > 2.56 | 0.991 | > 5 | 0.983 | > 5
LB647-SCLC (small cell lung carcinoma, semi-adherent) | 0.965 | > 5 | 0.872 | > 2.56 | 0.938 | > 5 | 0.985 | > 5
BC-1 (B-cell lymphoma, suspension) | 0.901 | 4.8 | 0.793 | 0.979 | 0.99 | > 5 | 0.991 | > 5
KARPAS-422 (B-cell lymphoma, suspension) | 0.985 | > 5 | 0.912 | > 2.56 | 0.988 | > 5 | 0.978 | > 5
KG-1 (acute myeloid leukaemia, suspension) | 0.962 | > 5 | 0.944 | > 2.56 | 0.987 | > 5 | 0.988 | > 5
NCI-H1770 (non-small cell lung carcinoma, suspension) | 0.969 | > 5 | 0.973 | > 2.56 | 0.992 | > 5 | 0.991 | > 5
LB373-MEL-D (melanoma, adherent) | 0.986 | > 5 | 0.987 | > 2.56 | 0.99 | > 5 | 0.983 | > 5
L-1236 (Hodgkin lymphoma, suspension) | 0.981 | > 5 | 0.98 | > 2.56 | 0.986 | > 5 | 0.991 | > 5
Mo-T (hairy cell leukaemia, suspension) | 0.987 | > 5 | 0.987 | > 2.56 | 0.987 | > 5 | 0.987 | > 5
RPMI-6666 (Hodgkin lymphoma, suspension) | 0.849 | 4.98 | 0.777 | 1.25 | 0.955 | > 5 | 0.967 | > 5
GB-1 (glioma, adherent) | 0.983 | > 5 | 0.925 | > 2.56 | 0.982 | > 5 | 0.979 | > 5
RF-48 (stomach, adherent) | 0.83 | 3.66 | 0.859 | > 2.56 | 0.966 | > 5 | 0.985 | > 5
BB30-HNC (head and neck, adherent) | 0.883 | > 5 | 0.966 | > 2.56 | 0.98 | > 5 | 0.929 | > 5

Cell Line | AUC [1] | IC50 [1] [µM] | AUC [2] | IC50 [2] [µM] | AUC [3] | IC50 [3] [µM] | AUC [4] | IC50 [4] [µM]
BT-474 (breast, adherent) | 0.986 | > 5 | 0.957 | > 2.56 | 0.979 | > 5 | 0.918 | > 5
ML-2 (acute myeloid leukaemia, suspension) | 0.909 | > 5 | 0.85 | 1.63 | 0.966 | > 5 | 0.99 | > 5
COLO-684 (endometrium, suspension) | 0.985 | > 5 | 0.882 | > 2.56 | 0.984 | > 5 | 0.985 | > 5
MFH-ino (soft tissue, adherent) | 0.933 | > 5 | 0.983 | > 2.56 | 0.96 | > 5 | 0.978 | > 5
CL-11 (large intestine, adherent) | 0.983 | > 5 | 0.961 | > 2.56 | 0.985 | > 5 | 0.981 | > 5
D-263MG (glioma, adherent) | 0.983 | > 5 | 0.95 | > 2.56 | 0.971 | > 5 | 0.976 | > 5
CHP-126 (neuroblastoma, suspension) | 0.881 | > 5 | 0.773 | 1.03 | 0.986 | > 5 | 0.984 | > 5
SK-N-FI (neuroblastoma, adherent) | 0.942 | > 5 | 0.989 | > 2.56 | 0.987 | > 5 | 0.94 | > 5
SUP-M2 (anaplastic large cell lymphoma, suspension) | 0.947 | > 5 | 0.994 | > 2.56 | 0.994 | > 5 | 0.994 | > 5
LS-1034 (large intestine, adherent) | 0.984 | > 5 | 0.928 | > 2.56 | 0.985 | > 5 | 0.949 | > 5
IST-SL1 (small cell lung carcinoma, semi-adherent) | 0.971 | > 5 | 0.972 | > 2.56 | 0.983 | > 5 | 0.984 | > 5
KGN (ovary, adherent) | 0.812 | 3.41 | 0.854 | > 2.56 | 0.974 | > 5 | 0.904 | > 5
NCI-H1666 (lung adenocarcinoma, semi-adherent) | 0.955 | > 5 | 0.973 | > 2.56 | 0.973 | > 5 | 0.949 | > 5
A388 (skin, adherent) | 0.872 | > 5 | 0.978 | > 2.56 | 0.975 | > 5 | 0.908 | > 5
NCI-H1869 (lung squamous cell carcinoma, adherent) | 0.923 | > 5 | 0.932 | > 2.56 | 0.98 | > 5 | 0.985 | > 5
KALS-1 (glioma, adherent) | 0.949 | > 5 | 0.857 | > 2.56 | 0.976 | > 5 | 0.971 | > 5
NCI-H1975 (lung adenocarcinoma, adherent) | 0.974 | > 5 | 0.961 | > 2.56 | 0.983 | > 5 | 0.979 | > 5
CP66-MEL (melanoma, adherent) | 0.973 | > 5 | 0.981 | > 2.56 | 0.985 | > 5 | 0.975 | > 5
IST-SL2 (small cell lung carcinoma, suspension) | 0.871 | 4.64 | 0.855 | 2.01 | 0.989 | > 5 | 0.976 | > 5
RL (B-cell lymphoma, suspension) | 0.976 | > 5 | 0.99 | > 2.56 | 0.95 | > 5 | 0.99 | > 5
LU-139 (small cell lung carcinoma, suspension) | 0.97 | > 5 | 0.882 | > 2.56 | 0.981 | > 5 | 0.982 | > 5
LB2518-MEL (melanoma, adherent) | 0.895 | > 5 | 0.981 | > 2.56 | 0.98 | > 5 | 0.987 | > 5
MC116 (B-cell lymphoma, suspension) | 0.999 | > 5 | 0.853 | 1.15 | 0.997 | > 5 | 0.999 | > 5
